These results are taken from PubChem BioAssay AID1745853 (National Center for Advancing Translational Sciences (NCATS), 2022).

The list shows a part of the results. Further columns of the screen follow, without active or inactive calls.

What all share (assay): Primary Screen for Target Class Profiling of Small Molecule Inhibitors of Methyltransferases
Test [1] has as its target Glycine N-methyltransferase (Homo sapiens) (UniProt Q14749). The settings on record: purified enzyme, MTase-Glo SAH luminescence; measured here: GNMT inhibition; at 40 µM; stronger effect = lower value. Put shortly:
(§1)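 Each enzyme was reacted with SAM and its substrate, with compounds tested once at 40 uM; SAH formed was read by MTase-Glo luminescence.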

Test [2] has as its target Guanidinoacetate N-methyltransferase (Homo sapiens) (UniProt Q14353). As to conditions: purified enzyme, MTase-Glo SAH luminescence; measured here: GAMT inhibition; at 40 µM; stronger effect = lower value. Put shortly:
as §1

Test [3] has as its target Histamine N-methyltransferase (Homo sapiens) (UniProt P50135). The settings on record: purified enzyme, MTase-Glo SAH luminescence; measured here: HNMT inhibition; at 40 µM; stronger effect = lower value. Summed up:
as §1

Test [4] has as its target Nicotinamide N-methyltransferase (Homo sapiens) (UniProt P40261). The settings on record: purified enzyme, MTase-Glo SAH luminescence; measured here: NNMT inhibition; at 40 µM; stronger effect = lower value. Put shortly: as §1
The target in test [5] is Phenylethanolamine N-methyltransferase (Homo sapiens) (UniProt P11086). The settings on record: purified enzyme, MTase-Glo SAH luminescence; measured here: PNMT inhibition; at 40 µM; stronger effect = lower value. Summed up: as §1
% is scaled to controls: 0 for no effect and ±100 for the full control effect.

Turning to `CCCS(=O)(=O)N1CCc2nnc(C3CC3)n2CC1`, the activity change, negative = inhibition was -2.49% in test [1]; 0.658% in test [2]; 1.56% in test [3]; -1.45% in test [4]; -0.083% in test [5].
Consider `CCC1c2ccc(C)n2CCN1C(=O)Nc1ccccc1C(F)(F)F` (stereo not given), for which the activity change, negative = inhibition was -4.22% in test [1]; 0% in test [2]; 2.07% in test [3]; -8.78% in test [4]; -0.258% in test [5].
The like results for `COC(=O)c1ncn2c1C(=O)N(c1ccc(C(C)C)cc1)C(C)(C(=O)NCCCOC(C)C)C2` (stereo not given) were, in that order, -1.14%, 2.36%, 14.2%, 8.91% and 10.1%.
Regarding `CCc1ccc(NC(=O)Cn2nc3n(CC(C)C)c(=O)c4ccccc4n3c2=O)cc1`, the activity change, negative = inhibition in test [1] was 0.15%; in test [2], 2.17%; in test [3], 3.93%; in test [4], -7.44%; in test [5], 1.12%.
The like results for `Cc1ccc(CNC(=O)Cn2ccc3cc(S(=O)(=O)N4CCC(C)CC4)ccc32)o1` were, in that order, 3.55%, 0%, 5.38%, -1.72% and 2.11%.
For `CC1CCN(S(=O)(=O)c2ccc3c(ccn3CC(=O)NCc3ccc(F)cc3)c2)CC1`, the activity change, negative = inhibition in test [1] stood at 2.79%; in test [2], 0.972%; in test [3], 5.2%; in test [4], 1.36%; in test [5], 2.99%.
Consider `COc1cccc(CNc2nc3c(-c4cccc(Br)c4)nnn3c3ccccc23)c1`, for which the activity change, negative = inhibition in test [1] was -9.34%; in test [2] it was 1.82%; in test [3], -6.08%; in test [4] it was -8.9%; in test [5] it was -6.51%.
On to `C=C1CCCC2(C)CC3(OC)OC(=O)C(C)=C3CC12` (stereo not given), for which the activity change, negative = inhibition in test [1] is -1.42%; in test [2] it was -3.85%; in test [3], 4.28%; in test [4], -15.9%; in test [5], -9.69%.
The like results for `COCCN1CC2CN(C(=O)CCCc3ccccc3)CC(C1)O2` were, in that order, -5.32%, -7.01%, -2.99%, -12.9% and -7.94%.
The like results for `COc1ccc2c(c1)c(NC(C)=O)c1n2CC(C)(C(=O)NC2CCCCC2)N(CCN(C)C)C1=O` (stereo not given) were, in that order, 1.23%, 0%, 3.81%, 9.86% and 0.098%.
Consider `COc1ccc(C(=O)N2CCC(c3noc(-c4ccncc4)n3)C2)cn1` (stereo not given), for which the activity change, negative = inhibition is -5.9% in test [1]; -11.8% in test [2]; -4.76% in test [3]; -16.9% in test [4]; -21.8% in test [5].
As for `CC1(C(=O)NC2CCCCCC2)Cn2c(cc3occc32)C(=O)N1CC1CCCO1` (stereo not given), the activity change, negative = inhibition was -1.45% in test [1]; 3.31% in test [2]; -0.493% in test [3]; -0.496% in test [4]; -2.14% in test [5].
With `CC(=O)N1CCCC(c2nn(-c3cccc(Cl)c3)c(=O)[nH]2)C1` (stereo not given), the activity change, negative = inhibition in test [1] is -4.6%; in test [2] it was -3.62%; in test [3], -1.3%; in test [4] it was -11.1%; in test [5], -22.6%.
Take `CC1(C(=O)NC2CCCCC2)Cn2nc(-c3cccs3)cc2C(=O)N1c1cccc(Cl)c1` (stereo not given): the activity change, negative = inhibition in test [1] was -15.8%; in test [2], 0.641%; in test [3], -5.15%; in test [4], -5.27%; in test [5], -8.05%.
Regarding `CC(=O)N1CCC(C(=O)N[C@H]2CCN3C(=O)N(c4ccc(OC(F)(F)F)cc4)C(=O)[C@@H]3C2)CC1`, the activity change, negative = inhibition in test [1] is 1.31%; in test [2], 0.684%; in test [3] it was 2.74%; in test [4] it was -2.08%; in test [5] it was 1.51%.
`COc1ccc(C)cc1NS(=O)(=O)c1ccc2[nH]c(=O)[nH]c2c1`: the activity change, negative = inhibition is -5.74% in test [1]; 5.48% in test [2]; 4.01% in test [3]; 7.46% in test [4]; -8.18% in test [5].
With `COc1ccc(OC)c2c1cc1n2CC(C)(C(=O)NC2CCCC(C)C2C)N(Cc2ccco2)C1=O` (stereo not given), the activity change, negative = inhibition in test [1] is -1.61%; in test [2], 4.44%; in test [3] it was -3.69%; in test [4] it was -3.31%; in test [5] it was -2.52%.
For `CC(C)OCCCNC(=O)C1CCCN(S(=O)(=O)c2cn(C)cn2)CCC(=O)NCC1` (stereo not given), in that order: -0.856%, -1.67%, 0.772%, -4.11% and 0.064%.
The like results for `O=c1c2ccccc2n2c(=O)n(Cc3ccc(F)cc3)nc2n1Cc1ccc(F)cc1` were, in that order, 5.32%, 1.64%, 6.33%, 5.13% and 3.94%.
The like results for `CC(C)c1noc([C@@H]2C[C@@H](O)CN2Cc2cc3ccccc3o2)n1` were, in that order, -5.2%, -10.4%, -1.94%, -6.28% and -4.58%.
Regarding `O=C(NCc1ccccc1)C1CCCN1c1nccc(Nc2ccccc2F)n1` (stereo not given), the activity change, negative = inhibition is -4.3% in test [1]; -3.58% in test [2]; -2.26% in test [3]; -11.9% in test [4]; 0.62% in test [5].
Consider `O=C(O)C1=CCNCC1`, for which the activity change, negative = inhibition in test [1] is 6.88%; in test [2], 7.43%; in test [3], 11.9%; in test [4], -8.81%; in test [5] it was -3.05%.
Regarding `Cc1n[nH]c(C)c1CNC(=O)C12CCCC=C1N(Cc1ccccc1)C(=O)CC2` (stereo not given), the activity change, negative = inhibition in test [1] is -11.4%; in test [2], -14.9%; in test [3], -5.87%; in test [4] it was -13.3%; in test [5], -7.08%.
The like results for `O=C(NCCn1ccnc1-c1cc2n(n1)CCCNC2)c1ccncc1` were, in that order, -0.399%, 1.58%, 1.16%, -0.673% and -0.173%.
The like results for `Cc1ccccc1CN1C(=O)c2cc3ccccc3n2CC1(C)C(=O)NC1CCCCC1` (stereo not given) were, in that order, 0.184%, 4.08%, 6.94%, 4.92% and 0.993%.
Take `COCCn1c(C)cnc1CC1CCN(C(=O)c2c[nH]c3ccccc23)CC1`: the activity change, negative = inhibition was -4.17% in test [1]; -2.7% in test [2]; -10.7% in test [3]; -6.53% in test [4]; 0.987% in test [5].
Consider `Cc1ccc(Cn2c(=O)c3ccccc3n3c(=O)n(Cc4ccccc4Cl)nc23)cc1`, for which the activity change, negative = inhibition in test [1] came to 5.58%; in test [2] it was 2.8%; in test [3], 5.6%; in test [4], 6.82%; in test [5] it was 3.88%.
For `Cc1nn2c(SCC(=O)Nc3ccc(C(C)C)cc3)nnc2[nH]c1=O`, in that order: -0.533%, 0%, -2.5%, -5.46% and -3.62%.
Take `COc1ccc(CNC(=O)CCc2nnc3n(Cc4ccccc4)c(=O)c4ccccc4n23)cc1`: the activity change, negative = inhibition in test [1] was -8.86%; in test [2] it was 0.125%; in test [3] it was 10.4%; in test [4], 12.5%; in test [5] it was 3.56%.
Take `O=C(/C=C/c1ccc(O)c(O)c1)OC[C@H]1O[C@@H](OC2CCCCC2O)[C@H](O)[C@@H](O)[C@@H]1O` (stereo not given in full): the activity change, negative = inhibition in test [1] was 0%; in test [2] it was -0.183%; in test [3], -0.367%; in test [4], -10.8%; in test [5], 2.33%.
